The values below come from patent US12138316B2, “Anti-B7H3 antibody-drug conjugate and use thereof” (Duality Biologics (Suzhou) Co., Ltd., priority 2023, dated 2024).

Data set [1] can be described thus: Thermal stability (Tm) determined by DSF. Type of data set: physicochemical. The conditions noted are these: Tm1. Here is the method: Tm (melting temperature) of each antibody was investigated using QuantStudio® 7 Flex real-time PCR system (Applied Biosystems). 19 μL of the antibody solution in Example 1.2 was mixed with 1 μL of SYPRO Orange solution (Invitrogen) and transferred to a 96-well plate (Applied Biosystems). The plate was sealed with an optical adhesive film (Applied Biosystems) and centrifuged at 3,000 rpm for 5 min to remove any air bubbles. The plate was heated from 26° C. to 95° C. at a rate of 0.9° C./min, and the resulting fluorescence data were collected. The negative derivatives of the fluorescence changes with respect to different temperatures were calculated, and the maximum value was defined as the melting temperature Tm. If a protein has multiple unfolding transitions, the first Tm were reported and designated Tm1. Data collection and Tm calculation were performed automatically by QuantStudio® real-time PCR software (v1.3).

For another data set, the target named is T1, human 2IgB7H3 (Homo sapiens, UniProt Q5ZPR3).
T1 construct: His tag; purchased ACROBiosystems B73-H52E2
T1 sequence (Q5ZPR3 29-316 isoform Q5ZPR3-2 limits assumed): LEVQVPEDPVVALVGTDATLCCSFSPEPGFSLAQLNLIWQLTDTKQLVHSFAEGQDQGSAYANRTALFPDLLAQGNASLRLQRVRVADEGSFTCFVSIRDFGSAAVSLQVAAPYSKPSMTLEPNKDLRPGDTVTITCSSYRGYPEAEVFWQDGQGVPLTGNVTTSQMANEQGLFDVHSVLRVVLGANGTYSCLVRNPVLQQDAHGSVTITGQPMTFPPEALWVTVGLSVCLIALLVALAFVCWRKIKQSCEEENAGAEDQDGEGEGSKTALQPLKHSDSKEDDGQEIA
The data set can be described thus: Binding affinity for human 2IgB7H3 (SPR). Here is the method: (§1) The affinity of antibodies for human 2IgB7H3 was determined using surface plasmon resonance (SPR). The affinity of antibodies for human 2IgB7H3 was determined by Biacore 8K. An activator was prepared by mixing 400 mM EDC and 100 mM NHS (GE) immediately prior to injection into the channel. The CM5 sensor chip was activated for 420 seconds with the activator. Goat anti-human Fc IgG (30 μg/mL in 10 mM NaAc, pH 4.5) was then injected into the channel at a flow rate of 10 μL/min for 420 seconds. The chip was deactivated by 1 M ethanolamine hydrochloric acid. The antibodies diluted in running buffer (1×HBS-EP+) were injected into the channel at a flow rate of 10 μL/min for 30 seconds. Seven concentrations (500 nM, 250 nM, 125 nM, 62.5 nM, 31.25 nM, 15.625 nM, and 7.813 nM) of analyte human 2IgB7H3 were injected sequentially into the channel at a flow rate of 30 μL/min for an association phase of 120 seconds, followed by dissociation of 300 seconds. Glycine (10 mM, pH 1.5) was injected as regeneration buffer after the dissociation phase.
The sensorgrams for the reference channel and the buffer channel were subtracted from the test sensorgrams. The experimental data were fitted with a 1:1 binding model. The molecular weight of the human 2IgB7H3 used in the calculation was 25.2 kDa.

A short description of data set [2]: pI (summary of analysis data). Type of data set: physicochemical.
Another data set addresses T2, human 4IgB7H3 (Homo sapiens, UniProt Q5ZPR3).
T2 construct: Uniprot ID: Q5ZPR3, amino acids 29-461; made in house; host or cells: Expi293F
T2 sequence (Q5ZPR3 29-461): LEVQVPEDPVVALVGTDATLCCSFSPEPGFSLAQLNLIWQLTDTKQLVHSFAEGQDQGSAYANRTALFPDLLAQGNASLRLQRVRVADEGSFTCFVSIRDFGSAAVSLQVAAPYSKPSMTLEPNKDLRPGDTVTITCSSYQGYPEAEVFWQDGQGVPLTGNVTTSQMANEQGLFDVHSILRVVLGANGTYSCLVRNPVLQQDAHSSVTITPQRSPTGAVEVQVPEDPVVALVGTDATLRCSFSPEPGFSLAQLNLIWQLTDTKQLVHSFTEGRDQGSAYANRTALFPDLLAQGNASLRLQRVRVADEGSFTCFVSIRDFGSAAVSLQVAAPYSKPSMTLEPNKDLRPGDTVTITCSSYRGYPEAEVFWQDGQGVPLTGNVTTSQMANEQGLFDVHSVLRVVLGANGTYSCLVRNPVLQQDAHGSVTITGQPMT
The data set can be described thus: Binding affinity for human 4IgB7H3 (SPR). Here is the method:
The affinity of antibodies for human 4IgB7H3 was determined using surface plasmon resonance (SPR). The affinity of antibodies for human 4IgB7H3 was determined by Biacore 8K. An activator was prepared by mixing 400 mM EDC and 100 mM NHS (GE) immediately prior to injection into the channel. The CM5 sensor chip was activated for 420 seconds with the activator. Goat anti-human Fc IgG (30 μg/mL in 10 mM NaAc, pH 4.5) was then injected into the channel at a flow rate of 10 μL/min for 420 seconds. The chip was deactivated by 1 M ethanolamine hydrochloric acid. The antibodies diluted in running buffer (1×HBS-EP+) were injected into the channel at a flow rate of 10 μL/min for 30 seconds. Seven concentrations (100 nM, 50 nM, 25 nM, 12.5 nM, 6.25 nM, […], and 1.563 nM) of analyte human 4IgB7H3 were injected sequentially into the channel at a flow rate of 30 μL/min for an association phase of 180 seconds, followed by dissociation of 3600 seconds. Glycine (10 mM, pH 1.5) was injected as regeneration buffer after the dissociation phase.
The sensorgrams for the reference channel and the buffer channel were subtracted from the test sensorgrams. The experimental data were fitted with a 1:1 binding model. The molecular weight of the human 4IgB7H3 used in the calculation was 47.8 kDa.

The target of a further data set is T3, human B7H3 (Homo sapiens, UniProt Q5ZPR3).
T3 construct: MCF-7 cells expressing human full-length B7H3; host or cells: MCF-7
T3 sequence (Q5ZPR3 29-534): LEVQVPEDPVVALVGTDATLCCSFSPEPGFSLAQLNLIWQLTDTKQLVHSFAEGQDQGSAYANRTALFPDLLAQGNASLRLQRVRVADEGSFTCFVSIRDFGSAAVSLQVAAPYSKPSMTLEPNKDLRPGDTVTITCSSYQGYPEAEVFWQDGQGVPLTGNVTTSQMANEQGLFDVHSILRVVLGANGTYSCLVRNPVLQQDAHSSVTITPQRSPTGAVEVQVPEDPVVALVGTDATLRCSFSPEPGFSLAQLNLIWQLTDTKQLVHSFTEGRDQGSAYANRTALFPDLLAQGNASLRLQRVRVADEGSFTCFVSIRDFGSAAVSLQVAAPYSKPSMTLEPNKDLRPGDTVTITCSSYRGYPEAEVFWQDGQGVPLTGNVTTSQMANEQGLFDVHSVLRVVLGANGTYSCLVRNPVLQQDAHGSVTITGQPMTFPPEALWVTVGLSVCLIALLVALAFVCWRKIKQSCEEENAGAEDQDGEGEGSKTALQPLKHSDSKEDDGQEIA
Briefly: FACS binding to human B7H3-expressing cells MCF-7. Here is the method:
(§2) FACS was used to detect the binding of antibodies to human B7H3. This method allows quantitative analysis and identification of specific molecules expressed on the surface of living cells. Unlabeled cells were used as a control to set a threshold before the assay, and the percentage change for each group that exceeded the fluorescence intensity threshold was analyzed. MCF-7 cells expressing human full-length B7H3 (1×10^5 cells/well) were incubated with various concentrations of antibodies (3.16-fold serially diluted with 1×DPBS/1% BSA from 50 nM to 0.0005 nM) in a volume of 100 μL/well in a refrigerator set to 4° C. for 1 h. Anti-human B7H3 reference antibody enoblituzumab (MacroGeneics) was used as a positive control. Human IgG1 isotype antibody was used as a negative control. After washing the cells with 1×DPBS/1% BSA, Alexa 647 goat anti-human antibody (diluted in a 1:500 ratio in 1×DPBS/1% BSA) was added. The cells were incubated in a refrigerator set to 4° C. for 0.5 h in the dark. The mean fluorescence intensity (MFI) of the cells was measured by a flow cytometry and analyzed by FlowJo. EC50 values were calculated by four-parameter non-linear regression analysis using GraphPad Prism 7 software.

Data set [3] has as its system cynomolgus monkey B7H3. Briefly: FACS binding to cynomolgus monkey B7H3-transfected stable cell pool. Here is the method:
as §2, with “to cynomolgus monkey” for “to human”, “B7H3. FlpinCHO” for “B7H3. This method allows quantitative analysis and identification of specific molecules expressed on the surface of living cells. Unlabeled”, “were transfected with cynomolgus monkey B7H3 (W3XX088-FlpinCHO.cProl.pool) (1×10^5 cells/well),” for “were used as a control to set a threshold before the assay,”, “the transfected” for “the percentage change for each group that exceeded the fluorescence intensity threshold was analyzed. MCF-7”, “cells” for “cells expressing human full-length B7H3 (1×10^5 cells/well)”

The subject of data set [4] is cynomolgus monkey B7H3. Briefly: Binding affinity for cynomolgus monkey B7H3 (SPR). Here is the method: as §1, with “cynomolgus monkey B7H3” for “human 2IgB7H3”, “Seven concentrations (500 nM, 250 nM, 125 nM, 62.5 nM, 31.25 nM, 15.625 nM, and 7.813 nM) of analyte human 2IgB7H3 were injected sequentially into the channel at a flow rate of 30 μL/min for an association phase of 120 seconds, followed by dissociation of 300 seconds.” left out
The sensorgrams for the reference channel and the buffer channel were subtracted from the test sensorgrams. The experimental data for 6 analyte concentrations (50 nM, 25 nM, 12.5 nM, 6.25 nM, 3.125 nM, and 1.563 nM) were fitted with a 1:1 binding model. The molecular weight of the cynomolgus monkey B7H3 used in the calculation was 49 kDa.

In data set [5] the test system is human B7H3-expressing cells MCF-7. Briefly: Internalization test (HCS) in MCF-7 cells. Type of data set: cell-based. Here is the method:
Antibody internalization was determined by operetta CLS (PerkinElmer), a high-content imaging and analysis system that can collect and analyze images of samples at high speed and high sensitivity. MCF-7 cells expressing human full-length B7H3 (1.5×10^4 cells/well) were seeded into a 96-well clear bottom black plate pre-coated with 8 μg/mL poly-D-lysine. After incubation in an incubator set to 37° C., 5% CO2 overnight, various concentrations of the antibodies (3.16-fold serially diluted with 1×DPBS/1% BSA from 50 nM to 0.0005 nM) were incubated in a volume of 100 μL/well in a refrigerator set to 4° C. for 2 h. Anti-human B7H3 reference antibody enoblituzumab (MacroGeneics) was used as a positive control. Human IgG1 isotype antibody was used as a negative control. After washing the cells with 1×DPBS/1% BSA, Alexa 647 goat anti-human antibody (diluted in a 1:500 ratio in 1×DPBS/1% BSA) was added. The cells were incubated in a refrigerator set to 4° C. for 1 h in the dark. The cells were then washed once and resuspended in 1×DPBS/1% BSA at 37° C. for 2 h. […] The mean fluorescence intensity (MFI) of the cells was measured and analyzed by operetta CLS. EC50 values were calculated by four-parameter non-linear regression analysis using GraphPad Prism 7 software.

B1: W301088-1.145.16-z3-p1-uIgG1KV320: humanized anti-B7H3 IgG1 antibody, heavy chain SEQ ID NO: 12, light chain SEQ ID NO: 13 (antibody)
heavy: QVQLQESGPGLVKPSQTLSLTCTVTDYSITGDYAWNWIRQHPGKGLEWIGYISYSGSTSYNPSLQSRVTISRDTSKNQFSLKLSSVTAADTAVYFCARSLGRRWYFVVWGQGTTVTVSSASTKGPSVFPLAPSSKSTSGGTAALGCLVKDYFPEPVTVSWNSGALTSGVHTFPAVLQSSGLYSLSSVVTVPSSSLGTQTYICNVNHKPSNTKVDKRV[not shown - human IgG1 Fc with changes]
light: DIVMTQSPDSLAVSLGERATINCKSSQSLLQSSNQKNYLAWYQQKPGQPPKLLIYFASTRESGVPDRFSGSGSGTDFTLTISSLQAEDVAVYYCQQHYSAPWTFGGGTKVEIKRTVAAPSVFIFPPSDEQLKSGTASVVCLLNNFYPREAKVQWKVDNALQSGNSQESVTEQDSKDSTYSLSSTLTLSKADYEKHKVYACEVTHQGLSSPVTKSFNRGEC
Turning to B1, in data set [1], the “Tm (° C.)” value amounted to 70.1 °C. Also, the “ka” value in the data set with human 2IgB7H3 was found to be 303000 M⁻¹ s⁻¹; in the data set with human 4IgB7H3, 657000 M⁻¹ s⁻¹; with cynomolgus monkey B7H3 [4], 527000 M⁻¹ s⁻¹. For the same molecule, the “kd (dissociation rate constant)” value in the data set with human 2IgB7H3 was 0.0141 s⁻¹; in the data set with human 4IgB7H3, 4.65e-05 s⁻¹; in the data set with cynomolgus monkey B7H3 [4], 3.02e-05 s⁻¹. Besides, the pI in data set [2] turned out to be 8.54. In addition, the “Maximum MFI” value amounted to 19900 in the data set with human B7H3 and 63600 in the data set on cynomolgus monkey B7H3 [3]. Besides, the “Antibody internalization Maximum MFI” value in data set [5] is 52315.
